Assay results published in paper PMC3502545.
Results are given in words; binding and its absence hold for the method and conditions named. Some entries that bind do so weakly or less than the wild type.

Amino acid sequences for entries named in this document (tags omitted). A change or cut given only in a name is not applied to a line headed by its entry. Chains listed by the source or under a name are the forms on record and can include a tag or linker. Residues count along the entry.
UniProt O00429: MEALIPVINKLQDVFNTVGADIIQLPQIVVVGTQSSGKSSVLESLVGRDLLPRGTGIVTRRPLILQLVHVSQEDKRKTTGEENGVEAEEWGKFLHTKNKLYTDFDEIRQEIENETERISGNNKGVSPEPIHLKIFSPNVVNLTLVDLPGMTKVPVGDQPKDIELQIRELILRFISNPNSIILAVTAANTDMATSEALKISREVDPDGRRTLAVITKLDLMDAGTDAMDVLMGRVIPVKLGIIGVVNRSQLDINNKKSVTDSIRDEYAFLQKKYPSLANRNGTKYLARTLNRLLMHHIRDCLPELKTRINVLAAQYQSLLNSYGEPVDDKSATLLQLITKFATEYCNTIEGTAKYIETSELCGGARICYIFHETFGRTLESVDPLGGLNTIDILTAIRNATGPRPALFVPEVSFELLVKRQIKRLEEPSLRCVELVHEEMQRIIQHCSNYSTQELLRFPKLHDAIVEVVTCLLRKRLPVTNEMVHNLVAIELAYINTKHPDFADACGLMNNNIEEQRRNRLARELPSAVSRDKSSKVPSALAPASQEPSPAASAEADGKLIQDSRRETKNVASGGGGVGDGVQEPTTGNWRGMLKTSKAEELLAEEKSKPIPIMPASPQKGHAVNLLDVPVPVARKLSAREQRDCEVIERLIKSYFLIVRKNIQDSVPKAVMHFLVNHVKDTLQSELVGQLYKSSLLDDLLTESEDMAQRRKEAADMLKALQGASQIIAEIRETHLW
Drp1 truncate 1 fragment (Drp1 1-489), yeast two-hybrid fusion: residues 1-489 of O00429
His-tagged Drp1 444-736 fragment (pET-32a(+)): residues 444-736 of O00429
Drp1 truncate 2 fragment (Drp1 502-736), yeast two-hybrid fusion: residues 502-736 of O00429
His-tagged Drp1 634-690 fragment (pET-32a(+)): residues 634-690 of O00429
UniProt P49841: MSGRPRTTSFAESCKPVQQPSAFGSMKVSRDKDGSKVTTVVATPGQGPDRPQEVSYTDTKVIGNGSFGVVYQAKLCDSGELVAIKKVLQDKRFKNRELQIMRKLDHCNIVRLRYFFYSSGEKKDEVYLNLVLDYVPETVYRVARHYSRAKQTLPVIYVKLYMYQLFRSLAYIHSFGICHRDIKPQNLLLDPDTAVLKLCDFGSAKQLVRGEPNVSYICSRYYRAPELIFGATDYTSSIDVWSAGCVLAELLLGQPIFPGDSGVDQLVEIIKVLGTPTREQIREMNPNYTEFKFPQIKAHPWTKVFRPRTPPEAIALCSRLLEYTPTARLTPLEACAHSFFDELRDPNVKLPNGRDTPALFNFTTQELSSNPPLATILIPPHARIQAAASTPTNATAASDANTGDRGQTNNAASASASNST

What was measured:
[1] = molecular target: Drp1 truncate 1 fragment (Drp1 1-489), yeast two-hybrid fusion (human) (UniProt O00429); assay: two-hybrid; Figure 1A: Drp1 constructs as bait (pAS2-1), GSK3beta as prey (pACT-2); beta-galactosidase (blue/white) and HIS3 induction, 5 mM 3-AT
[2] = molecular target: Drp1 truncate 2 fragment (Drp1 502-736), yeast two-hybrid fusion (human) (UniProt O00429); assay: as above
[3] = molecular target: Drp1 truncate 5 (Drp1 634-690), yeast two-hybrid fusion (human) (UniProt O00429); assay: as above
[4] = molecular target: Drp1 truncate 2 (Drp1 502-736) K679A, yeast two-hybrid fusion (human) (UniProt O00429); assay: two-hybrid; Figure 3C: Drp1 truncate 2 and 5 and truncate 2 point mutants against GSK3beta; which was bait is not given; result as + or -
[5] = molecular target: Drp1 truncate 2 fragment (Drp1 502-736), yeast two-hybrid fusion (human) (UniProt O00429); assay: as above
[6] = molecular target: Drp1 truncate 2 (Drp1 502-736) S693D, yeast two-hybrid fusion (human) (UniProt O00429); assay: as above
[7] = molecular target: Drp1 truncate 5 (Drp1 634-690), yeast two-hybrid fusion (human) (UniProt O00429); assay: as above
[8] = molecular target: His-tagged Drp1 634-690 fragment (pET-32a(+)) (human) (UniProt O00429); assay: far-Western, overlay or dot blot; recombinant His-tagged Drp1 full-length or fragments separated on 12% SDS gel, transferred to PVDF, incubated with HeLa cell lysate containing FLAG-tagged GSK3beta; detected with anti-FLAG; only the target purified
[9] = molecular target: His-tagged Drp1 444-736 fragment (pET-32a(+)) (human) (UniProt O00429); assay: as above
[10] = molecular target: GSK3beta, yeast two-hybrid fusion (UniProt P49841); assay: two-hybrid; Figure 3D: GSK3beta wt or V267G mutant as bait, C-terminal Drp1 with or without K679A as prey; result as + or -

GSK3beta, yeast two-hybrid fusion (from UniProt P49841 1-420) (enzyme)
binding [1]: no binding
binding [2]: binds
binding [3]: binds
binding [4]: no binding
binding [5]: binds
binding [6]: binds
binding [7]: binds

FLAG-tagged GSK3beta (from UniProt P49841 1-420) (enzyme)
binding [8]: binds
binding [9]: binds

Drp1 truncate 2 (Drp1 502-736) K679A, yeast two-hybrid fusion (from UniProt O00429 502-736) (domain or fragment)
binding [10]: no binding
